# Laboratory results: PubChem BioAssay AID588855 (National Center for Advancing Translational Sciences (NCATS), 2011)
# The whole screen tested about 410,000 compounds, of which about 5,000 (1.2%) were called active. Inconclusive results, whose numbers are uncertain, are shown with a selection of clear calls. Calls come from the whole dose curve; as a rule, active = well fitted inhibition curve with a large enough effect; inconclusive = small, poorly fitted or top-dose-only effect; inactive = no such curve, though single readings can be large or run the other way. Potencies of inconclusive entries are doubtful fits and often do not repeat.
# Experiment: qHTS for Inhibitors of TGF-b; note: nearly all actives have a fitted effect of over 65% in size
# Conditions: HepG2 CAGA-GFP TGF-b/SMAD3 reporter, GFP fluorescence, 18 h, TGF-beta stimulated, 500 pg/mL final; series mostly up to 46.1 µM
# Procedure, shortened: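 Using HEPG2 CAGA-GFP reporter cells at 1000 cells/well, we pinned test compounds, stimulated with recombinant TGF-beta (500 pg/mL final) and measured total well GFP after 18 h.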
# Potency is the fitted concentration of half-maximal effect; tags give direction and shape of the fitted curve.
row,SMILES,Potency
1,O=C(/C=C/NNC(=O)c1ccccc1)c1ccc([N+](=O)[O-])cc1,"inconclusive: 35.5 µM [inhibitor, single point]"
2,CS(=O)(=O)Nc1cccc(-c2cc(NC=O)c3ncc(-c4ccc(F)c(Cl)c4)n3c2)c1,"inconclusive: 22.4 µM [inhibitor, single point]"
3,Cc1nc2c(cnn2-c2ccccc2Cl)c(=O)n1-c1ccc(N2CCC(C)CC2)cc1,inactive
4,COc1ccc(C(C)(O)c2nc(-c3ccc4ccccc4c3)cs2)cc1 (centres undefined),"inconclusive: 35.5 µM [inhibitor, single point]"
5,N#Cc1ccc(S(=O)(=O)N2CCC(C(=O)N3CCN(Cc4ccc5c(c4)OCO5)CC3)CC2)cc1,"inconclusive: 12.6 µM [inhibitor, single point]"
6,COC(=O)Cc1nc(NC(=O)c2cccs2)sc1C,inactive
7,COc1ccc(/C=C/C(=O)N2CCN(c3ccccn3)CC2)c2ccccc12,"inconclusive: 3.16 µM [inhibitor, full curve, poor fit]"
8,CC(=O)c1sc2c(c1OC(=O)c1ccc(Cl)cc1Cl)c(=O)n(-c1ccccc1)c(=S)n2-c1ccccc1,"inconclusive: 35.5 µM [inhibitor, single point]"
9,COC(=O)N/N=C/c1cc(Br)ccc1O,inactive
10,COc1ccccc1-n1cnnc1SCC(=O)Nc1cccc(S(N)(=O)=O)c1,inactive
11,CCc1ccc(C(O)(C(C)C)C(CN2CCOCC2)c2ccccc2)cc1 (centres undefined),"inconclusive: 22.4 µM [inhibitor, single point]"
12,CCCCN(C(=O)c1ccc(-c2ccc([N+](=O)[O-])cc2)o1)c1c(N)n(CCCC)c(=O)[nH]c1=O,"inconclusive: 35.5 µM [inhibitor, single point]"
13,Cc1ccccc1OCCn1c(=N)n(C(C)C)c2ccccc21,"inconclusive: 35.5 µM [inhibitor, single point]"
14,O=C(c1ccc(Cl)cc1Cl)N1CCC(C(=O)N2CCOCC2)CC1,inactive
15,COc1ccc(CC(N)c2csc(NC(=O)NCc3ccccc3)n2)cc1 (centres undefined),inactive
16,COc1ccc(-c2noc(-c3ccc(NCc4cccnc4)c([N+](=O)[O-])c3)n2)cc1OC,"inconclusive: 2.51 µM [inhibitor, single point]"
17,CC12CCC(c3c1nc1ccccc1[n+]3[O-])C2(C)C (centres undefined),inactive
18,Cc1cc(C)c(S(=O)(=O)NCCc2cc3ccc(C)c(C)c3[nH]c2=O)c(C)c1,"inconclusive: 1.12 µM [inhibitor, full curve]"
19,NNc1nccc(Nc2ccccc2C(=O)O)n1,"inconclusive: 15.8 µM [inhibitor, single point]"
